Results from PubChem BioAssay AID900 (National Center for Advancing Translational Sciences (NCATS), 2007).
Screen size: about 75,000 compounds; about 20 (0.03%) were called active. This list was built around the results that the source calls inconclusive (neither active nor inactive); the mix of calls is not that of the screen. The call rests on the fitted dose curve; in most records, active means well fitted inhibition curve with a large enough effect; inconclusive means small, poorly fitted or top-dose-only effect; inactive means flat fitted curve, though single readings scatter. Potencies beside an inconclusive call are fits to weak or partial responses and may not hold up.

Biological target: Caspase-1 (Homo sapiens) (UniProt P29466)
Test: qHTS Assay for Allosteric/Competitive Inhibitors of Caspase-1;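 on activity change, negative = inhibition: plate controls were vehicle for no effect and no substrate for full effect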
Details: Caspase-1 enzyme, Ac-WEHD-AFC fluorogenic rate; activity change, negative = inhibition: at 57.5 µM (top of the series) unless noted
Potency means the concentration at half of the fitted maximal effect; tags describe the fitted curve by direction and shape or compound fluorescence and quenching.

Structure (SMILES)	activity change, negative = inhibition	Potency
COCCCn1c(=N)c(C(=O)NCc2ccc3c(c2)OCO3)cc2c(=O)n3ccccc3nc21	inactive: -10.1%	
CNc1ccc(O)cc1		inconclusive: 39.8 µM [inhibitor, partial curve]
CCOCC(=O)Nc1ccc2c(c1)OCCO2	inactive: -0.819%	
CCS(=O)(=O)N(C)[C@@H]1c2cc(C#N)ccc2OC(C)(C)[C@H]1O		inactive
CCOC(=O)CSC1=C(C#N)C(c2ccccc2F)C(C(C)=O)=C(C)N1 (stereo unspecified)	inactive: -9.23%	
COc1ccc(OC)c(C(c2nnnn2C2CCCC2)N2CCN(c3ccccc3F)CC2)c1 (stereo unspecified)	inactive: -1.58%	
O=C(Nc1cccc(-c2cn3ccccc3n2)c1)c1cnccn1	inactive: -3.16%	
Cc1c(C(=O)NC2CCCCC2)sc2nc3ccc(N)cc3n12	inactive: -2.37%	
COc1ccc2cc(S(=O)(=O)N3CCOCC3)ccc2c1		inconclusive: 39.8 µM [inhibitor, single point]
Cc1ccccc1-c1ccc2ncnc(NCc3cccs3)c2c1	inconclusive: -15.4% [inhibitor]	
COC(=O)C1C(=O)C2=C(CC1C)NC(C)=C(C(=O)OC1CCCC1)C2c1ccc(N(C)C)cc1 (stereo unspecified)		inconclusive: 25.1 µM [inhibitor, partial curve]
CCCCCCOC(=O)C(C#N)c1nc2ccccc2nc1N1CCN(C)CC1 (stereo unspecified)		inconclusive: 20 µM [inhibitor, partial curve]
Cc1oc(-c2cccc(Cl)c2)nc1CN1CCCC(C(=O)NC(C)c2ccc3c(c2)OCCO3)C1 (stereo unspecified)	inactive: -5.62%	
CC(=O)OC[C@@H]1O[C@@H](O/N=C2/C[C@@H](O)[C@@H](O)[C@@H]3[C@@H]4C(=O)N(C(C)(C)C)C(=O)[C@H]4CC[C@H]23)[C@H](OC(C)=O)[C@H](OC(C)=O)[C@@H]1OC(C)=O	inactive: -2.87% [at 11.5 µM]	
c1ccc(-c2nnc(CN3CCCc4ccccc43)o2)cc1		inconclusive: 31.6 µM [inhibitor, partial curve]
COC(=O)c1sc2nc3c(cc2c1N)COC(C)(C)C3		inconclusive: 31.6 µM [inhibitor, partial curve]
Cc1noc(COc2ccccc2OCC(N)=O)c1Cl		inconclusive: 31.6 µM [inhibitor, single point]
COc1cccc2cc(-c3cn4cccc(C)c4n3)c(=O)oc12		inconclusive: 3.98 µM [inhibitor, full curve]
Cc1cc(C)c2c(n1)nn1c(NCCN3CCOCC3)cc(C)nc21		inconclusive: 10 µM [inhibitor, partial curve]
Cc1ccccc1CSc1ncc(C#N)c(N)n1	inconclusive: -16.5% [inhibitor]	
COc1cccc(C(=O)NC2=NCCS2)c1OC	inactive: -0.227%	
CC(=O)Nc1cc(OC(C)=O)c2nonc2c1OC(C)=O		inconclusive: 1.58 µM [inhibitor, full curve]
CCOc1ccc(-c2nnc3sc(COc4ccc(C)cc4)nn23)cc1	inactive: -3.15%	

Structure (SMILES)	activity change, negative = inhibition	Potency
Cc1ccc(/C=N/c2sc3c(c2C#N)CCCCC3)o1	inconclusive: -16.7% [inhibitor]	
CCC(c1nnnn1CC1CCCO1)N(CCN1CCOCC1)Cc1cc2cc(C)ccc2[nH]c1=O (stereo unspecified)		inconclusive: 31.6 µM [inhibitor, partial curve]
CC1CCCC(C)N1C(=O)C1CC(c2ccc(F)cc2)=NO1 (stereo unspecified)	inconclusive: -15.2% [inhibitor]	
CCSC1=N/C(=C\c2ccc3c(c2)OCO3)C(=O)S1		inconclusive: 25.1 µM [inhibitor, partial curve]
C[C@H]1CC[C@H]2C(=O)N[C@H](Cc3ccccc3)C(=O)N2[C@@H]1c1ccccc1	inconclusive: -16.8% [inhibitor] [at 11.5 µM]	
N#CCCn1c(=O)c(-c2ccccc2)nc2cnc(N3CCNCC3)nc21		inconclusive: 10 µM [fluorescent]
CCN1CCCC1Cn1c(-c2ccccc2)nc2c(N(CCOC)CCOC)nc(C)nc21 (stereo unspecified)	inactive: -5.83%	
C[C@H](O)[C@H](O)[C@@H]1CNc2nc(N)[nH]c(=O)c2N1	inactive: 3.31%	
C/C1=C2N=C(/C=C3N=C(/C(C)=C4\[N-]C(C)(C5N=C1C(C)(CCC(=O)NCC(C)OP(=O)([O-])O[C@H]1C(O)C(n6cnc7cc(C)c(C)cc76)O[C@@H]1CO)C5CC(N)=O)C(C)(CC(N)=O)C4CCC(N)=O)C(C)(CC(N)=O)C\3CCC(N)=O)C(C)(C)C/2CCC(N)=O.[CH2-]C1OC(n2cnc3c(N)ncnc32)C(O)C1O.[Co] (stereo partly specified)		inconclusive: 6.31 µM [inhibitor, partial curve]
C[C@](N)(C(=O)O)c1ccc(-c2nn[nH]n2)cc1	inactive: -9.92%	
COc1ccc(OC)c(-n2c(N)c(C(=O)NCC3CCCO3)c3nc4ccccc4nc32)c1 (stereo unspecified)		inconclusive: 15.8 µM [inhibitor, partial curve]
COc1ccc(-c2ccc(-c3noc(C(C)C)n3)c(OC)n2)cc1		inconclusive: 39.8 µM [inhibitor, single point]
Cc1ccc(S(=O)(=O)N[C@H](C(=O)O)C(C)C)cc1	inactive: -1.54% [at 11.5 µM]	
OCc1ccccc1	inactive: -2.23%	
CCC(=O)O[C@@]1(C(=O)SCF)[C@@H](C)C[C@H]2[C@@H]3C[C@@H](F)C4=CC(=O)C=C[C@@]4(C)[C@]3(F)[C@@H](O)C[C@]21C	inactive: -0.242% [at 25.7 µM]	
CCOC(=O)c1oc2ccccc2c1NC(=O)Cc1cccs1	inactive: -2.31%	
COc1ccc(Oc2ncc3nc(-c4cn(C)c5ccccc45)c(=O)n(C)c3n2)cc1		inconclusive: 3.98 µM [inhibitor, partial curve]
O=c1n(CC2CO2)c(=O)n(CC2CO2)c(=O)n1CC1CO1 (stereo unspecified)	inactive: 0.668%	
Cn1cccc1C(=O)N1CCC2(CCCN(c3ncccn3)C2)CC1	inactive: -0.305%	
COc1ccc(-n2c(=O)c(-c3ccccc3)nc3cnc(N4CCN(C)CC4)nc32)cc1		inconclusive: 20 µM [inhibitor, partial curve]
O=C(C1=C(O)C(=O)N(CCN2CCOCC2)C1c1ccccn1)c1cccs1 (stereo unspecified)		inconclusive: 25.1 µM [inhibitor, partial curve]
COc1ccc(C(=O)c2ccc(OC)cc2O)c(O)c1	inactive: -1.62%	
COc1ccc(-c2cc(C(=O)OCC(=O)N3CCCC3)c3ccccc3n2)cc1		inconclusive: 31.6 µM [inhibitor, single point]
